From publication PMC4336329 (PLoS ONE, 2015)
Among all 310,000 compounds or so, about 14,000 (4.5%) showed an effect of 50% or more. Effects have a minus sign here. Some of the results follow.

molecular target: human ether-à-go-go-related gene (hERG) potassium channel (human, UniProt Q12809); experiment: primary screen, population patch clamp on CHO cells stably expressing hERG
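Also: peak tail current of the secondary pulse compared with the same well before compound.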

human ether-à-go-go-related gene (hERG) potassium channel, sequence (Q12809 whole entry, looked up): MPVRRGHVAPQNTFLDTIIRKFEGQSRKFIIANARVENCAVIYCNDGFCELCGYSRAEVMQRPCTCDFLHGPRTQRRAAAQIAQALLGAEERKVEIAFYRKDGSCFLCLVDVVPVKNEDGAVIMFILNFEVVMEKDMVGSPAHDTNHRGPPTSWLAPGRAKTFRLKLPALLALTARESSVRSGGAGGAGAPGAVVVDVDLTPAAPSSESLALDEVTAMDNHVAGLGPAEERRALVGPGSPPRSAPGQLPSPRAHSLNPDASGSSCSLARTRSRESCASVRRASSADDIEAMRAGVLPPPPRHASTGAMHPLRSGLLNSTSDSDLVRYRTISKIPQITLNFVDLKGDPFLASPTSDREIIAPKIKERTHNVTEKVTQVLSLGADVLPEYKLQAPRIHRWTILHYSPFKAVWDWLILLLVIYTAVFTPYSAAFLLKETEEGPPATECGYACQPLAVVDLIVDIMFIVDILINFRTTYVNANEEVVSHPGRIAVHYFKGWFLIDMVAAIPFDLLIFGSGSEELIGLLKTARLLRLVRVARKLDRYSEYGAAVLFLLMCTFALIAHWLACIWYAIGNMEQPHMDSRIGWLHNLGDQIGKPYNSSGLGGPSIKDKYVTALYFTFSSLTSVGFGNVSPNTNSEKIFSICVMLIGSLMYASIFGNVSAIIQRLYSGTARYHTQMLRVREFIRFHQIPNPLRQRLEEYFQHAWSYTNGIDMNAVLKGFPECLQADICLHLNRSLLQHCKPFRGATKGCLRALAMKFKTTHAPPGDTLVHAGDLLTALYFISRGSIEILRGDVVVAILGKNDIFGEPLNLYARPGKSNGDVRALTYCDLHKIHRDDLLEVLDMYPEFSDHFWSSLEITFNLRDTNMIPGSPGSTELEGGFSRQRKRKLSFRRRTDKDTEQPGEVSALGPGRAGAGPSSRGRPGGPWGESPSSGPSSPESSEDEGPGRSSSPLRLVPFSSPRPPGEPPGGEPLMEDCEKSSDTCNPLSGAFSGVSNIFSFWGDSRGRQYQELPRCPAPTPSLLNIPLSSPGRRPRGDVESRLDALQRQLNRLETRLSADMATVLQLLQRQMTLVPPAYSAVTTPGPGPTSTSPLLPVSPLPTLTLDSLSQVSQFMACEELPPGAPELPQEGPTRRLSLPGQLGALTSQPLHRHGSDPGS

Row | SMILES | hERG current change (%, negative = inhibition) at 10uM [%]
1 | Cc1ncc(S(=O)(=O)c2ccccc2)c(-c2ccccc2Cl)n1 | -2.47
2 | Cc1cccc(N2CC(C(=O)Nc3cccc(S(=O)(=O)N4CCCCC4)c3)CC2=O)c1C (stereo not drawn) | -3.11
3 | NS(=O)(=O)c1ccc(CNC(=O)c2cc(-c3ccccn3)nc3ccc(Cl)cc23)cc1 | 15.6
4 | Clc1cccc(-c2nn3c(Cn4cnc5ccccc54)nnc3s2)c1 | 2.23
5 | CC1(c2ccc([N+](=O)[O-])c(CS(=O)(=O)c3ccccc3)c2)OCCO1 | -7.33
6 | C=C(C)CSc1nnc([C@@H](NC(=O)OC(C)(C)C)C(C)CC)o1 (stereo partly drawn) | -10.5
7 | CCOC(=O)C1CCCN(CCC(=O)Nc2ccccc2C)C1.Cl (stereo not drawn) | 12.5
8 | O=C(O)C1(c2ccccc2)CCC(Nc2ccccc2)C1 (stereo not drawn) | 17.2
9 | Cc1ccccc1C(=O)c1c[nH]c(C(=O)NCC2CCCO2)c1 (stereo not drawn) | 5.25
10 | O=C(Nc1ccc(Cl)cc1Cl)c1csc(-c2cccnc2)n1 | -1.42
11 | O=C(NC1CCCC1)c1cccc(NC(=O)c2ccco2)c1 | -29.6
12 | Cc1cccc(C(=O)Oc2ccccc2C(=O)N2CCOCC2)c1 | -8.06
13 | COc1ccc(C(=O)NC2CC(C)(C)Cc3c2cnn3-c2ccccc2)cc1OC (stereo not drawn) | -39.7
14 | COCCCNC(=O)Cn1ccc(N)nc1=O | 11.4
15 | Clc1ccccc1Cn1c(/C=C/c2ccco2)nc2ccccc21 | 13.5
16 | COC(=O)C(Cc1cnc(Cl)s1)(C(=O)OC)c1ccc([N+](=O)[O-])cc1 | -36
17 | O=S(=O)(NC1CCCCC1N1CCN(c2ccc(F)cc2)CC1)c1ccccc1 (stereo not drawn) | -7.05
18 | Cc1cc(C)cc(C(=O)NCC(=O)N2CCN(c3cccc(Cl)c3)CC2)c1 | -21
19 | Cc1c(NC(=O)COc2ncnc3ccccc23)c(=O)n(-c2ccccc2)n1C | 8.23
20 | CCCC(=O)Nc1ccc(C(=O)NNC(=O)c2ccco2)cc1 | 22.3
21 | COc1cccc(-c2onc3ccc(C4(C)OCCO4)cc23)c1 | 17.5
22 | COc1cc(C(=O)O)ccc1OC(C)=O | 14.8
23 | COc1cc(CCC(=O)OCC(=O)Nc2c(C)cccc2C(C)C)cc(OC)c1OC | 23.4
24 | CC(C)(C)c1ccc(C(=O)N/N=C2\C3CN4CCN(C3)CC2(c2ccccc2)C4)cc1 | -14.8
25 | COCCNC(=O)C(c1ccncc1)N(C(=O)c1sc(C)nc1C)c1cccc(C)c1 (stereo not drawn) | 18.7
26 | O=C(CCN1C(=O)C2CC=CCC2C1=O)Nc1ccccc1Cl (stereo not drawn) | 6.92
27 | CCOc1ccc(S(=O)(=O)N2CCOCC2)cc1NC(=O)C1=COCCO1 | -4.66

Row | SMILES | hERG current change (%, negative = inhibition) at 10uM [%]
28 | CCOc1nc(NCCO)nc(Nc2cc(Cl)ccc2OC)n1 | 0.612
29 | COc1ccc(-n2ncc3c(NCC(C)C)ncnc32)cc1 | -0.691
30 | Cc1ccc(-n2c3c(c(=O)[nH]c2=S)C(C(F)(F)F)(C(F)(F)F)NC(=O)N3)cc1 | -3.85
31 | Cc1cc(Cl)ccc1OCC(=O)NC(=S)Nc1ccccc1N1CCOCC1 | 12.4
32 | CCOC(=O)c1sc(NC(=O)CN2CCN(c3ccccc3)CC2)nc1C | -5.78
33 | C/C(N)=C(/C#N)C(=O)COC(=O)COc1ccc(Cl)cc1 | 6.79
34 | Cc1ccc(/C=N/n2c(-c3ccc(Cl)cc3)n[nH]c2=S)o1 | 15.5
35 | O=C(C1CCCN(S(=O)(=O)Cc2ccccc2)C1)N1CCc2ccccc21 (stereo not drawn) | -33.1
36 | Cc1ccccc1Nc1nc(N)nc(COC(=O)c2cccc(S(=O)(=O)N(C)c3ccccc3)c2)n1 | -7.79
37 | Cc1ccc(S(=O)(=O)c2nc(-c3ccccc3)oc2N2CCC(C(N)=O)CC2)cc1 | -26.3
38 | Cc1ccc(S(=O)(=O)N2CCC(=O)N(CCOCc3ccc(C(F)(F)F)cc3)CC2)cc1 | -41.6
39 | Cc1ccc(NC(=O)COC(=O)Cn2c(C)csc2=O)c([N+](=O)[O-])c1 | -4.5
40 | CCN(CCn1cccn1)Cc1nc(-c2ccc(C(=O)OC)cc2)no1 | -5.09
41 | CCCCNC(=O)c1oc2ccc(S(=O)(=O)N3CCCC3)cc2c1C | -13.4
42 | CCCN(CCC)CCCNC(=O)c1cc2c(=O)[nH]c3ccccc3c2s1 | -4.19
43 | O=C(CSc1nnnn1C1CC1)N1CCN(c2ccccc2F)CC1 | -6.93
44 | CCOC(=O)N1CCC(NC(=O)c2ccc(CS(=O)c3ccc(Cl)cc3)o2)CC1 (stereo not drawn) | -11
45 | CC(=O)Oc1ccc(/C=C2\C=C(c3ccc(C)cc3)OC2=O)cc1 | 12.3
46 | COC(=O)c1cc(OC)c(OC)cc1N=CC1=C(O)CC(C)(C)CC1=O | 3.25
47 | Cc1cc(NC(=O)C(C)SCC(=O)OCc2ccc(Cl)cc2Cl)no1 (stereo not drawn) | 1.04
48 | COc1ccccc1-c1nn(-c2ccccc2)cc1C(=O)NCC(c1ccco1)N1CCCC1 (stereo not drawn) | -53
49 | N#Cc1c(-c2ccc(F)cc2)cc(-c2ccccc2)nc1SCC(=O)NCC(=O)O | -0.355
50 | CC12C(=O)N(n3cnnc3)C(=O)C1C1C=CC2C1 (stereo not drawn) | -2.07
51 | COc1cccc(CN(C)C(=O)CCN=C2NS(=O)(=O)c3ccccc32)c1OC | 10.6
52 | CC(=O)N1c2ccc(S(=O)(=O)N3CCC(C(=O)Nc4cccc(C)n4)CC3)cc2CC1C (stereo not drawn) | 15.8
53 | N#C/C(=C\c1ccc(-c2nc3ccccc3s2)o1)C(N)=O | 5.03
54 | COc1ccc(/C=N/NC(=O)c2cccc(NC(=O)c3ccccc3Cl)c2)cc1 | -28.4
